From PMC7819943, “Rice protein-binding microarrays: a tool to detect cis-acting elements near promoter regions in rice”
The list shows a part of the results.

molecular target: T1, OsWOX13 (Oryza sativa, UniProt Q5QMM3 1-267); test: protein-binding microarray (RPBM); PBS, 2% BSA, 51.3 ng/ul salmon testes DNA, 50 uM zinc acetate, 200 nM TF, 25 C, 1 h; high values mean tight binding; details: protein: recombinant; tags: N-terminal polyhistidine and DsRed monomer fusion (pET32a); label: CyDye5-dUTP incorporated in the synthesized complementary strand; 3' TTTTT single-stranded linker to array surface; dsDNA, one strand shown
T1 sequence: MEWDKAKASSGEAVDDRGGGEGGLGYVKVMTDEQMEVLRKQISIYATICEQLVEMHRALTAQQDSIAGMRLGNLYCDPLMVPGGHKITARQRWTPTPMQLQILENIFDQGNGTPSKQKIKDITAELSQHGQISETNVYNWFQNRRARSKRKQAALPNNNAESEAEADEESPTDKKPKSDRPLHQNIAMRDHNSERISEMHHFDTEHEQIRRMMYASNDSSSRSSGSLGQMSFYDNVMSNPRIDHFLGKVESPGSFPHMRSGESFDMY
How it was run: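 Transcription factors were each fused at the N-terminus to a polyhistidine tag plus DsRed and expressed in E. coli BL21-CodonPlus before Ni–NTA purification. Binding to a double-stranded custom Agilent array was carried out with 200 nM protein at 25 °C for 1 h in PBS, 2% BSA, salmon testes DNA and 50 µM zinc acetate. The binding signal is per-feature fluorescence intensity, in arbitrary units, on an Axon 4000B scanner.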

Q: How did the binding signal turn out when “CTTCTGTTGATCGGCTCAATCAACGAAATCCCCGAAAACGCGGAGTCACCTAGTGCAG” was run?
A: The binding signal was 13700 fluorescence intensity (a.u.).

Q: With “AGTGTGATTGATGCACAAACAAACAGCTCAAGTTGAGGCCCGGAGTCACCTAGTGCAG” as the sequence, how does the binding signal read?
A: The binding signal was 55400 fluorescence intensity (a.u.).

Q: For “AAAATCTGACATCTGACATGTTAATTAAGCTTGTGTTAGTCGGAGTCACCTAGTGCAG”, which binding signal is on record?
A: The binding signal was 4890 fluorescence intensity (a.u.).

Q: Which binding signal does the source give for “GCTGTGATGGACTGGGTAATCAGAAGGGAGACATGCGAGGCGGAGTCACCTAGTGCAG” here?
A: Its binding signal is 23600 fluorescence intensity (a.u.).

Q: How did the binding signal turn out when “AGTCTCTCCAATCTAATCTCATTTCATCTTCATCATCTCCCGGAGTCACCTAGTGCAG” was run?
A: The binding signal was 5590 fluorescence intensity (a.u.).

Q: “TCTTAATTACTTATAGAAAATAAATTCAAGAACGGGCCTACGGAGTCACCTAGTGCAG” was tested. Which binding signal did it give?
A: Its binding signal is 17000 fluorescence intensity (a.u.).

Q: For “AGCAAAACACATGATTGATTTTATGGAGCTTCACGCCATACGGAGTCACCTAGTGCAG”, which binding signal is on record?
A: Its binding signal is 31800 fluorescence intensity (a.u.).

Q: “AAGATATGATAATTTAGTGTCCATTATGGTGTTTCTTAGTCGGAGTCACCTAGTGCAG” was tested. Which binding signal did it give?
A: The binding signal was 3870 fluorescence intensity (a.u.).

Q: For “GCAGTGATTAACACATATGCACTTATAATCTGTCTAACTTCGGAGTCACCTAGTGCAG”, which binding signal is on record?
A: Its binding signal is 17300 fluorescence intensity (a.u.).

Q: With “ATGAATGGTGGAAGATTCTGATTGGTTAAGTAGTGGAGTTCGGAGTCACCTAGTGCAG” as the sequence, how does the binding signal read?
A: The binding signal was 19100 fluorescence intensity (a.u.).

Q: “AAATATATTCAATTAGCGATTTGATGAAACTAATTTAGTACGGAGTCACCTAGTGCAG” was tested. Which binding signal did it give?
A: The binding signal was 11200 fluorescence intensity (a.u.).

Q: With “ATTCTTAAAATGAATGACATAATTACTTATTTAGGCAAACCGGAGTCACCTAGTGCAG” as the sequence, how does the binding signal read?
A: Its binding signal is 8350 fluorescence intensity (a.u.).

Q: Which binding signal does the source give for “TGCCCTAATTACAACCCATTTGCTTATCTCTCTCCTCTCTCGGAGTCACCTAGTGCAG” here?
A: The binding signal was 12700 fluorescence intensity (a.u.).

Q: For “TCTTAATTTTCTTGTGGACGTAAATAGCAGCCAGCTGACCCGGAGTCACCTAGTGCAG”, which binding signal is on record?
A: The binding signal was 12100 fluorescence intensity (a.u.).

Q: “GCTAATTAAACCGAACAACCACCTCAGCTCTCGCCTGAGACGGAGTCACCTAGTGCAG” was tested. Which binding signal did it give?
A: Its binding signal is 21600 fluorescence intensity (a.u.).

Q: With “TGTTAATGAATCTAGATAGATATATCTATTTAGATTCATTCGGAGTCACCTAGTGCAG” as the sequence, how does the binding signal read?
A: The binding signal was 9660 fluorescence intensity (a.u.).

Q: How did the binding signal turn out when “CTTTTAATTGAACCGTGCTAATAATATAGATATAAAAGTTCGGAGTCACCTAGTGCAG” was run?
A: Its binding signal is 4230 fluorescence intensity (a.u.).

Q: Which binding signal does the source give for “ATATCTGATGATTTAAGTCCAGATGACATCCCTCCCACCGCGGAGTCACCTAGTGCAG” here?
A: The binding signal was 9130 fluorescence intensity (a.u.).

Q: With “CGATGACTCGTAATTTAATGTTTCATACCTCGCTTTATACCGGAGTCACCTAGTGCAG” as the sequence, how does the binding signal read?
A: The binding signal was 8520 fluorescence intensity (a.u.).

Q: How did the binding signal turn out when “TTATAACTGGCTTATAGTCTCTCGTAGACAACTTATGTTTCGGAGTCACCTAGTGCAG” was run?
A: The binding signal was 3580 fluorescence intensity (a.u.).

Q: For “TATAATGTCACTAAATGAGGGGATGGGGAGTGGAAGCCTGCGGAGTCACCTAGTGCAG”, which binding signal is on record?
A: Its binding signal is 6430 fluorescence intensity (a.u.).

Q: Which binding signal does the source give for “GATATGATTATTTATTTCTTTAAATGAAAATCATGTGTAACGGAGTCACCTAGTGCAG” here?
A: The binding signal was 26000 fluorescence intensity (a.u.).

Q: “TTATTAGAATATTGATTGAAATTTTCAGCCTCCAAACAACCGGAGTCACCTAGTGCAG” was tested. Which binding signal did it give?
A: The binding signal was 16100 fluorescence intensity (a.u.).

Q: With “TTACAATTAACACTACTGTCTATGTCTCAATTCATACTATCGGAGTCACCTAGTGCAG” as the sequence, how does the binding signal read?
A: The binding signal was 3650 fluorescence intensity (a.u.).

Q: Which binding signal does the source give for “TTAGCACGTGATTAATTGATTATTAACTACTTAAAATTTTCGGAGTCACCTAGTGCAG” here?
A: Its binding signal is 25800 fluorescence intensity (a.u.).

Q: Which binding signal does the source give for “CAAGATTGTCAAGCACCGGCATCCTCGACTTATCGACGTGCGGAGTCACCTAGTGCAG” here?
A: The binding signal was 4510 fluorescence intensity (a.u.).

Q: “TTTTGACCGTGGTTAATTTGCCACGTTAGCTAATGCCATTCGGAGTCACCTAGTGCAG” was tested. Which binding signal did it give?
A: Its binding signal is 11200 fluorescence intensity (a.u.).

Q: “TCATTCTAATTATTTGATATTAGGTCTTATATATAGATTTCGGAGTCACCTAGTGCAG” was tested. Which binding signal did it give?
A: The binding signal was 5560 fluorescence intensity (a.u.).

Q: How did the binding signal turn out when “TGTGATTGGTGCCACCTCCTCCTCCTCTGCCTCTCTCCTCCGGAGTCACCTAGTGCAG” was run?
A: The binding signal was 30100 fluorescence intensity (a.u.).

Q: “TTAAAATTTCAGTTGATTAAAACTACGTACTAACTGGTCGCGGAGTCACCTAGTGCAG” was tested. Which binding signal did it give?
A: The binding signal was 27600 fluorescence intensity (a.u.).

Q: Which binding signal does the source give for “AACCCATAAATTATGTTTTAATTAATTCGTTTATATTATCCGGAGTCACCTAGTGCAG” here?
A: The binding signal was 20000 fluorescence intensity (a.u.).

Q: Which binding signal does the source give for “CTGTTTTAATTGGAGCCCACCCGTTTCGGCTATCTCCTCCCGGAGTCACCTAGTGCAG” here?
A: The binding signal was 30700 fluorescence intensity (a.u.).

Q: How did the binding signal turn out when “GCACGAGAAACTGGGTTAAATTGACAAGGGTATAATTGGACGGAGTCACCTAGTGCAG” was run?
A: Its binding signal is 24900 fluorescence intensity (a.u.).

Q: How did the binding signal turn out when “CTGGAATGAGATTCAATCATTTTGGAGTTGACAATCCCAACGGAGTCACCTAGTGCAG” was run?
A: The binding signal was 15700 fluorescence intensity (a.u.).

Q: For “CACTAAGTTAATTAGGACCGGAGTTATCCAAATCCAGATACGGAGTCACCTAGTGCAG”, which binding signal is on record?
A: The binding signal was 10100 fluorescence intensity (a.u.).

Q: How did the binding signal turn out when “CTCGCCGTCCATCCTTCCCTGCGTCCAATCCCCACCCTCCCGGAGTCACCTAGTGCAG” was run?
A: The binding signal was 60200 fluorescence intensity (a.u.).

Q: How did the binding signal turn out when “CAGGATTGATTCCCACTCACTGCCTGATAGCAGGCTTGGCCGGAGTCACCTAGTGCAG” was run?
A: The binding signal was 47200 fluorescence intensity (a.u.).

Q: Which binding signal does the source give for “TGGAACGTATATATGATTGTCATTGACTGACGACACAATCCGGAGTCACCTAGTGCAG” here?
A: The binding signal was 26600 fluorescence intensity (a.u.).

Q: How did the binding signal turn out when “TCATGCATTACAATTGATCATATTGTACCCCAATTTACAACGGAGTCACCTAGTGCAG” was run?
A: The binding signal was 3780 fluorescence intensity (a.u.).

Q: With “TTTCATTCTAATTAAATTAGATAGACGGACATCATTAGTCCGGAGTCACCTAGTGCAG” as the sequence, how does the binding signal read?
A: Its binding signal is 34400 fluorescence intensity (a.u.).

Q: For “AGTTTGTGATTGTAATGTTGTGCTACACTGTCCTTATCTTCGGAGTCACCTAGTGCAG”, which binding signal is on record?
A: Its binding signal is 17600 fluorescence intensity (a.u.).

Q: How did the binding signal turn out when “TTTTAGTTCAGTTAGTGCAATTAATTCACCTGTGGCGACGCGGAGTCACCTAGTGCAG” was run?
A: The binding signal was 4930 fluorescence intensity (a.u.).

Q: With “TTGCTATAAATCTGAACACATAATTATTTTGATTCATAGCCGGAGTCACCTAGTGCAG” as the sequence, how does the binding signal read?
A: The binding signal was 4890 fluorescence intensity (a.u.).

Q: “ACCAATTCTGCCAATCATGAAGTTCAGTTCCGATGAAGAACGGAGTCACCTAGTGCAG” was tested. Which binding signal did it give?
A: The binding signal was 10500 fluorescence intensity (a.u.).

Q: With “AAGATGATAGACTAGACGATCTAAATTAGAAGCCTCACATCGGAGTCACCTAGTGCAG” as the sequence, how does the binding signal read?
A: Its binding signal is 35200 fluorescence intensity (a.u.).

Q: “GCAAGTAAATTGACATTCCTGCCCCTCCTCTTCCGTCCTACGGAGTCACCTAGTGCAG” was tested. Which binding signal did it give?
A: Its binding signal is 38400 fluorescence intensity (a.u.).

Q: With “TCAGAAATAACATATCACTGATTTATAAACTCTCTCTATCCGGAGTCACCTAGTGCAG” as the sequence, how does the binding signal read?
A: The binding signal was 4440 fluorescence intensity (a.u.).

Q: For “TTGATAATTACTAGTTACTATATAGACAAATATATGAATACGGAGTCACCTAGTGCAG”, which binding signal is on record?
A: The binding signal was 6320 fluorescence intensity (a.u.).

Q: For “GCCTAATTGCTTAATTAGCAGCCAACGGATTCGATTGATCCGGAGTCACCTAGTGCAG”, which binding signal is on record?
A: Its binding signal is 53900 fluorescence intensity (a.u.).

Q: For “TCCAGATTTAAATCCGAATTACACATCACATAACTTGAACCGGAGTCACCTAGTGCAG”, which binding signal is on record?
A: Its binding signal is 10100 fluorescence intensity (a.u.).

Q: With “ATCATAATTTCAACTTGTTGAACATACAGATTACCTGCTTCGGAGTCACCTAGTGCAG” as the sequence, how does the binding signal read?
A: The binding signal was 7020 fluorescence intensity (a.u.).

Q: “ACACACTAATCACGATTAGCCTAACAAAACTCACGTACATCGGAGTCACCTAGTGCAG” was tested. Which binding signal did it give?
A: Its binding signal is 20600 fluorescence intensity (a.u.).

Q: For “ACAATTTGTCACCTTAATCACAAGCTAACCACGCATGGCCCGGAGTCACCTAGTGCAG”, which binding signal is on record?
A: Its binding signal is 4310 fluorescence intensity (a.u.).

Q: “ACGGATTAATTAGGTTTAATAAATTCGTCTCGTAGTTTCTCGGAGTCACCTAGTGCAG” was tested. Which binding signal did it give?
A: The binding signal was 22800 fluorescence intensity (a.u.).
